Reference: PubChem BioAssay AID894 (National Center for Advancing Translational Sciences (NCATS), 2007)
Among all 150,000 compounds or so, about 6,500 (4.3%) were called active. The shares of active, inactive and inconclusive entries below differ from those in the screen. The call rests on the fitted dose curve; in most records, active means well fitted inhibition curve with a large enough effect (not every such curve was filed as active); inconclusive means small, poorly fitted or top-dose-only effect, or another doubt; inactive means no such curve, though single readings can be large or run the other way. No potency is given beside an inconclusive call; the fits are too rough.

biological target: 15-hydroxyprostaglandin dehydrogenase [NAD(+)] (Homo sapiens) (UniProt P15428); assay: qHTS Assay for Inhibitors of HPGD (15-Hydroxyprostaglandin Dehydrogenase); conditions: purified HPGD, NADH fluorescence kinetic, PGE2 substrate; activity change, negative = inhibition: hits give low values
Summary of the method: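 NADH formation kinetics: reaction with 30 uM PGE2 and 1 mM NAD+ (final), 20 nM enzyme, Tris-HCl pH 8 with Tween 20, after 15 min compound preincubation at room temperature. Fluorescence change, last versus first of five reads.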
On the % scale 0 is the no-effect control and ±100 the full control effect; potency means the concentration at half of the fitted maximal effect; tags describe the fitted curve by direction and shape.

Chain of UniProt P15428 (P15428 whole entry, looked up): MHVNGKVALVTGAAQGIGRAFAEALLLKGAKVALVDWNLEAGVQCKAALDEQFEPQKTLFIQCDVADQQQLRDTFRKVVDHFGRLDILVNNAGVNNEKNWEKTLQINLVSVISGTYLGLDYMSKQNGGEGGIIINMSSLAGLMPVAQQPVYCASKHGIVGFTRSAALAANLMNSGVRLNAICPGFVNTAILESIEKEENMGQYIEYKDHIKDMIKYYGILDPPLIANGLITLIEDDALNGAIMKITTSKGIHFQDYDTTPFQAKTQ

Compound	Potency	activity change, negative = inhibition
O=C(CSCc1cnn(-c2ccccc2)c1-n1cccc1)NCC1CCCO1 (stereo not drawn)	inconclusive [inhibitor, partial curve]	–
CC(=O)N=c1c(C#N)cc2c(=O)n3ccccc3nc2n1Cc1ccccc1	inconclusive [inhibitor, partial curve]	–
CC(=O)Oc1cc2oc(=O)cc(C)c2cc1OC(C)=O	inconclusive [inhibitor, partial curve]	–
Cc1cccc(C2=NN(c3ccc(Br)cc3)[C@@H](C(=O)N3CCOC3=O)[C@@H]2c2ccc(Cl)cc2)c1	inconclusive [inhibitor, partial curve]	–
Cc1nn(-c2cccc(Cl)c2)c2nc(C(F)(F)F)[nH]c(=O)c12	inconclusive [inhibitor, partial curve]	–
CCOC(=O)c1cc2c(s1)-c1ccccc1CC2	inconclusive [inhibitor, partial curve]	–
CC1CCN(C(=S)c2ccc([N+](=O)[O-])cc2)CC1	active: 22.4 µM	–
Cc1cc(C)n2nc(C(=O)Nc3ccc(S(=O)(=O)N4CCCCC4)cc3)nc2n1	inconclusive [inhibitor, partial curve]	–
O=C(/C=C/NCC(=O)c1ccccc1)c1ccc(Br)cc1	–	inactive: -26.9%
CCOC(=O)CNc1c(-c2ccc(F)cc2)nc2cnccn12	inconclusive [inhibitor, partial curve]	–
CC#CCOC(=O)C1=CCCN(C)C1	–	inactive: 2.72%
Cc1noc(C)c1C(=O)N1CCC2(CC1)CN(c1ccccn1)C2	inconclusive [inhibitor, partial curve]	–
CC(C)CCn1c(SCCc2ccccc2)nc2c1c(=O)[nH]c(=O)n2C	inconclusive [inhibitor, single point]	–
CC(C(=O)Oc1ccc2c(c1)OCO2)N1C(=O)c2ccccc2C1=O (stereo not drawn)	–	inactive: -12.6%
CCNc1ccc2c(Cl)cc(=O)oc2c1	inconclusive [inhibitor, partial curve]	–
O=c1[nH]c(=O)n(CCO)c2nnn(Cc3ccccc3)c12	active: 28.2 µM	–
O=c1cc(-c2ccc(O)cc2)oc2cccc(O)c12	inconclusive [inhibitor, full curve, poor fit]	–
C=C(CC1([C@@H](NP(=O)(c2ccccc2)c2ccccc2)[C@H]2C[C@@H]2CCCC)CC1)c1cccc(OC)c1	–	inactive: -16.8%
CCCOc1cccc(C(=O)N(Cc2ccc(OC)c(OC)c2)C2CCS(=O)(=O)C2)c1 (stereo not drawn)	inconclusive [inhibitor, single point]	–
Cc1sc(NC(=O)CN2CCOCC2)nc1-c1ccc2c(c1)CCN2S(=O)(=O)c1ccccc1	–	inactive: -7.08%
CCn1ncc(/C=C/C(=O)c2ccccc2)c1C	inconclusive [inhibitor, partial curve]	–
Cc1ccc(CS(=O)(=O)CCC(=O)NCCCN2CCCC2=O)cc1	–	inactive: -15.5%
Cc1ccc(-c2nnc3sc(CCc4ccccc4)nn23)cc1	active: 14.1 µM	–
COc1ccccc1CNC(=O)c1cccc(-c2ccccc2OC)n1	active: 7.94 µM	–

Compound	Potency	activity change, negative = inhibition
CC1CCC2(CC1)NC(=O)N(CC(=O)Nc1nc(-c3ccc(F)cc3)cs1)C2=O (stereo not drawn)	–	inactive: -12.6%
Cc1c(-c2ccccc2)nc2ccccc2c1C(=O)NCc1cccs1	inconclusive [inhibitor, partial curve, poor fit]	–
CCOc1ccc(-c2nc(CSCC(=O)NCc3ccco3)c(C)o2)cc1	inconclusive [inhibitor, partial curve]	–
CN(Cc1ccccc1)Cn1ccnc1	–	inactive: -7.92%
CCc1ccc(-c2cc(C(=O)N3N=C(C(F)F)CC3(O)C(F)F)c3ccccc3n2)cc1 (stereo not drawn)	inconclusive [inhibitor, single point]	–
CC(C)=CCC/C(C)=C/CC/C(C)=C/CSCC(=O)O	–	inactive: -11.9%
Cc1ccc(/C=C/C(=O)N2CCc3ccccc3C2)cc1	active: 14.1 µM	–
Cc1ccc(-c2nc3cccnc3o2)cc1NC(=O)COc1ccc(C(C)(C)C)cc1	inconclusive [inhibitor, partial curve]	–
COc1ccc(C(=O)N2CCN(c3cccc(Cl)c3)CC2)cc1	–	inactive: 4.45%
COc1ccc(CCNS(=O)(=O)c2ccc3c(c2)oc(=O)n3C)cc1OC	–	inactive: -7.34%
COC(=O)c1cc(C(=O)OCC(=O)NCc2ccc3c(c2)OCO3)cc([N+](=O)[O-])c1	–	inactive: 5.24%
COCCCNC(=O)c1nc2c(nnn2Cc2cc(C)ccc2C)c(=O)[nH]1	active: 0.447 µM	–
O=C(CSc1nnc(-c2ccccc2Cl)o1)Nc1ccc2c(c1)OCCO2	–	inactive: -9.84%
Cc1cc(C)c(S(=O)(=O)N(CC(=O)O)C2CCCCC2)c(C)c1	–	inactive: -6.96%
O=C(N1CCCCC1)N1CCN(C(=O)N(c2ccccc2)c2ccccc2)CC1	–	inactive: -1.48%
O=C(Cn1c(=O)sc2ccccc21)Nc1ccc(S(=O)(=O)N2CCCCC2)cc1	–	inactive: -13.9%
Cc1ccc(NC(=O)Nc2ccccc2C#N)c(Cl)c1	inconclusive [inhibitor, partial curve]	–
CC1(C)CC(=O)C2=C(C1)c1c(ccc3ccccc13)NC2c1ccc(Br)o1 (stereo not drawn)	inconclusive [inhibitor, partial curve]	–
Cc1ccc2c(CC(=O)NCc3ccco3)coc2c1C	active: 2.82 µM	–
O=S(=O)(NCCC1=CCCCC1)c1cccc2nsnc12	inconclusive [inhibitor, partial curve]	–
COc1ccc(NC(=O)OC(C)C)cc1	inconclusive [inhibitor, partial curve]	–
CCOC(=O)c1c(C)n(O)c2ccc(Cl)cc2c1=O	inconclusive [inhibitor, partial curve]	–
CCCn1c(C(C)NC(C)=O)nc2ccccc21 (stereo not drawn)	–	inactive: -8.54%
CCCOc1ccc(C(=O)Nc2nc(C)c(Cc3ccc4c(c3)OCO4)s2)cc1	inconclusive [inhibitor, partial curve]	–
